Results on 23 molecules are retold here after PMC7847993.

Protein sequences, listed by entry. Tags and fused reporters are not part of them. Lines headed by an entry give the natural chain unless they say otherwise; changes in a name come on top.
UniProt Q9ZSD4: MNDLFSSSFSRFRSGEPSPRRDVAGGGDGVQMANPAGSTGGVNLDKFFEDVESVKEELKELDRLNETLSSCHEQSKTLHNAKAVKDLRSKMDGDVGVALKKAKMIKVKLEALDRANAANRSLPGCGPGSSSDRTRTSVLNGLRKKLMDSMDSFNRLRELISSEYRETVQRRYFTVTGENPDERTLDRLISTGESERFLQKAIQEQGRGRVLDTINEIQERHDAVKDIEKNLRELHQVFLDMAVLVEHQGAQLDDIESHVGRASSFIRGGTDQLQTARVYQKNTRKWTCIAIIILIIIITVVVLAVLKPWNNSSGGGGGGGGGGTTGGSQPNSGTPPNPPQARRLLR

These are yes or no findings as the source states them, for the method shown. Binding seen in cells or lysates may run through a third protein. Some entries that bind do so weakly or less than the wild type.

To fix the notation:
B1: SYP124 (protein, UniProt O64791 1-303)
chain: MNDLFSSSFKKYTDLKQQAQMDDIESGKETMNLDKFFEDVENVKDNMKGVETLYKSLQDSNEECKTVHNAKKVKELRAKMDGDVAQVLKRVKMIKQKLEALEKANANSRNVSGCGPGSSTDRTRTSVVSGLGKKLKDLMDSFQGLRARMNAEYKETVERRYFTITGEQADEQTIENLISSGESENFLQKAIQEQGRGQILDTISEIQERHDAVKEIEKNLIELHQVFLDMAALVESQGQQLNDIESHVSKASSFVRRGTDQLQDAREYQKSSRKWTCYAILLFIVVFALLLIPALPHIMLMLK
B2: SNAP33 (protein, UniProt Q9S7P9 1-300)
chain: MFGLRKSPANLPKHNSVDLKSSKPNPFDSDDESDNKHTLNPSKRTTSEPSLADMTNPFGGERVQKGDSSSSKQSLFSNSKYQYKNNFRDSGGIENQSVQELEGYAVYKAEETTKSVQGCLKVAEDIRSDATRTLVMLHDQGEQITRTHHKAVEIDHDLSRGEKLLGSLGGMFSKTWKPKKTRPINGPVVTRDDSPTRRVNHLEKREKLGLNSAPRGQSRTREPLPESADAYQRVEMEKAKQDDGLSDLSDILGELKNMAVDMGSEIEKQNKGLDHLHDDVDELNFRVQQSNQRGRRLLGK
B3: SYP22 (protein, UniProt P93654 1-268)
chain: MSFQDLESGRGRSTRKFNGGRQDSTQAVASGIFQINTGVSTFQRLVNTLGTPKDTPELREKLHKTRLHIGQLVKDTSAKLKEASETDHQSGVNPSKKIADAKLARDFQAVLKEFQKAQQTAAERETTYTPFVPQSALPSSYTAGEVDKVPEQRAQLQESKRQELVLLDNEIAFNEAVIEEREQGIQEIHQQIGEVNEIFKDLAVLVNDQGVMIDDIGTHIDNSRAATSQGKSQLVQAAKTQKSNSSLTCLLLVIFGIVLLIVIIVLAA
B4: SYP131 (protein, UniProt Q9SRV7 1-306)
chain: MNDLLKGSLEFSRDRSNRSDIESGHGPGNSGDLGLSGFFKKVQEIEKQYEKLDKHLNKLQGAHEETKAVTKAPAMKSIKQRMERDVDEVGRISRFIKGKIEELDRENLENRTKPGCGKGTGVDRTRTATTIAVKKKFKDKISEFQTLRQNIQQEYREVVERRVFTVTGQRADEEAIDRLIETGDSEQIFQKAIREQGRGQIMDTLAEIQERHDAVRDLEKKLLDLQQVFLDMAVLVDAQGEMLDNIENMVSSAVDHVQSGNNQLTKAVKSQKSSRKWMCIAILILLIIIIITVISVLKPWTQKNGA
B5: SYP123 (protein, UniProt Q9ZQZ8 1-305)
chain: MNDLISSSFKRYTDLNHQVQLDDIESQNVSLDSGNLDEFFGYVESVKEDMKAVDEIHKRLQDANEESKTVHDSKAVKKLRARMDSSVTEVLKRVKMIKTKLVALEKSNAAQRKVAGCGPGSSADRTRTSVVSGLGKKLKDMMDDFQRLRTKMATEYKETVERRYFTVTGQKADEETVEKLISSGESERFLQKAIQEQGRGQVMDTLSEIQERHDTVKEIERSLLELHQVFLDMAALVEAQGNMLNDIESNVSKASSFVMRGTDQLHGAKVLQRNNRKWACIATILAIVVVIVILFPILFNTLLRP
B6: SYP125 (protein, UniProt Q9SXB0 1-298)
chain: MNDLFSNSFKKNQAQLGDVEAGQETMNLDKFFEDVENVKDDMKGVEALYKKLQDSNEECKTVHNAKKVKELRAKMDGDVAMVLKRVKIIKQKLEALEKANANSRNVPGCGPGSSTDRTRSSVVSGLGKKLKDLMDSFQGLRARMNNEYKETVERRYFTITGEKADEQTIDNLIASGESENFLQKAIQEQGRGQILDTISEIQERHDAVKEIEKNLLELHQVFLDMAALVEAQGQQLNNIESHVAKASSFVRRGTDQLQDAREYQKSSRKWTCYAIILFIVIFILLLIPLLPHIMLMLK
B7: SYP132 (protein, UniProt Q8VZU2 1-304)
chain: MNDLLKGSFELPRGQSSREGDVELGEQQGGDQGLEDFFKKVQVIDKQYDKLDKLLKKLQASHEESKSVTKAPAMKAIKKTMEKDVDEVGSIARFIKGKLEELDRENLANRQKPGCAKGSGVDRSRTATTLSLKKKLKDKMAEFQVLRENIQQEYRDVVDRRVYTVTGERADEDTIDELIETGNSEQIFQKAIQEQGRGQVMDTLAEIQERHDAVRDLEKKLLDLQQIFLDMAVLVDAQGEMLDNIESQVSSAVDHVQSGNTALQRAKSLQKNSRKWMCIAIIILLIVVAVIVVGVLKPWKNKSA
B8: SYP112 (protein, UniProt Q9ZPV9 1-305)
chain: MNDLMTKSFLSYVELKKQARTDMESDRDLEKGEDFNFDFSPADEENLSGFFQEIETIKTLIEEITHLLLDLQNLNEETKSTHSTKILRGLRDRMESNIVTISRKANTVKTLIETLEKRNVANRTSFKEGSCVDRTRTSITNGVRKKLRDTMSEFHRLRERIFADYREDLKRKYFLATGEEPSNEDMEKMISGSGSCSDLVKTFEVKPEMDLKTKERHEAVNDIKRSLNRLHQVFLDMAVLVETQGDRIDDIEANVANAGSFVSGGTNSLYYANQMKKKTKSWVLWVSILGVLILLVCVISMLASR
B9: SYP111 (protein, UniProt Q42374 1-310)
chain: MNDLMTKSFMSYVDLKKAAMKDMEAGPDFDLEMASTKADKMDENLSSFLEEAEYVKAEMGLISETLARIEQYHEESKGVHKAESVKSLRNKISNEIVSGLRKAKSIKSKLEEMDKANKEIKRLSGTPVYRSRTAVTNGLRKKLKEVMMEFQGLRQKMMSEYKETVERRYFTVTGEHANDEMIEKIITDNAGGEEFLTRAIQEHGKGKVLETVVEIQDRYDAAKEIEKSLLELHQVFLDMAVMVESQGEQMDEIEHHVINASHYVADGANELKTAKSHQRNSRKWMCIGIIVLLLIILIVVIPIITSFSSS
B10: SYP51 (protein, UniProt Q9SA23 1-232)
chain: MASSSDSWMRAYNEALKLSEEINGMISERSSSAVTGPDAQRRASAIRRKITIFGNKLDSLQSLLAEIHGKPISEKEMNRRKDMVGNLRSKANQMANALNMSNFANRDSLLGPDIKPDDSMSRVTGMDNQGIVGYQRQVMREQDEGLEQLEGTVMSTKHIALAVSEELDLQTRLIDDLDYHVDVTDSRLRRVQKSLAVMNKNMRSGCSCMSMLLSVLGIVGLAVVIWMLVKYM
B11: SYP41 (protein, UniProt O65359 1-322)
chain: MATRNRTLLFRKYRNSLRSVRAPLSSSSLTGTRSGGVGPVIEMASTSLLNPNRSYAPISTEDPGTSSKGAITVGLPPAWVDVSEEISVNIQRARTKMAELGKAHAKALMPSFGDGKEDQHNIESLTQEITFLLKKSEKQLQRLSASGPSEDSNVRKNVQRSLATDLQLLSMELRKKQSTYLKRLRQQKEDGMDLEMNLSRNRYRPEEDDFGDMLNEHQMSKIKKSEEVSVEREKEIQQVVESVNDLAQIMKDLSALVIDQGTIVDRIDYNIENVATTVEDGLKQLQKAERTQRHGGMVKCASVLVILCFIMLLLLILKEIFL
B12: NtSYP121 (protein, UniProt Q9ZSD5 1-300)
chain: MNDLFSGSFSRFRADDQSDSHAIEMGDITGGVNLDKFFEDVEAIKDELKGLEKIYSQLQSSHEKSKTLHNAKAVKDLRSNMDNDVSMALKKAKFIKVRLEALDRSNAANRSLPGCGPGSSSDRTRTSVVNGLRKKLQESMNQFNELRQKMASEYRETVQRRYYTVTGENPDEAVLDTLISTGQSETFLQKAIQEQGRGQVMDTVMEIQERHEAVKELERNLKELHQVFLDMAVLVESQGAQLDDIESQVNRANSFVRGGAQQLQVARKHQKNTRKWTCFAIILLLIIILVVVLSIQPWKK
B13: VAMP722 (protein, UniProt P47192 1-221)
chain: MAQQSLIYSFVARGTVILVEFTDFKGNFTSIAAQCLQKLPSSNNKFTYNCDGHTFNYLVENGFTYCVVAVDSAGRQIPMAFLERVKEDFNKRYGGGKAATAQANSLNKEFGSKLKEHMQYCMDHPDEISKLAKVKAQVSEVKGVMMENIEKVLDRGEKIELLVDKTENLRSQAQDFRTQGTQMRRKMWFQNMKIKLIVLAIIIALILIIILSICGGFNCGK

The target of the first assay is T1, Arabidopsis PIP2;7 (Arabidopsis thaliana) (UniProt P93004).
T1 sequence: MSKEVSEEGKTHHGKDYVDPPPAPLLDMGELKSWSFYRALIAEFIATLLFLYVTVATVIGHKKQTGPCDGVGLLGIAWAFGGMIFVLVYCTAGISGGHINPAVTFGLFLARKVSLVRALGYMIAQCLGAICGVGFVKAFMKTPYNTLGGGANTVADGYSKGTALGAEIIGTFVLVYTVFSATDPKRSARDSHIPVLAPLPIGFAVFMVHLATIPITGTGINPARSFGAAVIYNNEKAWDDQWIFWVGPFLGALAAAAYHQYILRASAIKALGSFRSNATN
Nature of the assay: split reporter; ratiometric BiFC (pBiFCt-2in1-NN vector, p35S): nEYFP-SNARE and cEYFP-PIP co-expressed in N. benthamiana leaf cells, imaged 3 days after agro-infiltration; YFP/RFP ratio at the plasma membrane compared with SYP121/PIP2;7 (positive) and SNAP33/PIP2;7 (negative).
For “SYP121ΔNH (from UniProt Q9ZSD4 193-346) (domain or fragment)”, the binding entry is reported as “binds”. On the same count and under the same terms, then “SYP121-Q (from UniProt Q9ZSD4 193-283) (domain or fragment)”, with “no binding”; and “SYP121-H (from UniProt Q9ZSD4 44-192) (domain or fragment)”, with “no binding”.

With “SYP121-[171–200] (from UniProt Q9ZSD4 171-200) (domain or fragment)”, the binding entry is on record as “no binding”. On the same count and under the same terms, then “SYP121-HQ (from UniProt Q9ZSD4 44-283) (domain or fragment)”, with “binds”; and “SYP121-[143–200] (from UniProt Q9ZSD4 143-200) (domain or fragment)”, with “no binding”. The same measure, in the same setting: in the case of “SYP121ΔNHQ (from UniProt Q9ZSD4 284-346) (domain or fragment)” it was “binds”.

In the case of “SYP121-[143–222] (from UniProt Q9ZSD4 143-222) (domain or fragment)”, the binding result was “binds weakly”. Still for that read-out and setting: then “SYP121ΔQC (from UniProt Q9ZSD4 1-192) (domain or fragment)”, with “no binding”; and “SYP121-[171–222] (from UniProt Q9ZSD4 171-222) (domain or fragment)”, with “binds weakly”.

A further assay concerns the target T1, Arabidopsis PIP2;7 (Arabidopsis thaliana). The description is as above. This is another data set of the same source.
Consider B1, for which the binding entry is reported as “binds”. On the same count and under the same terms, then B2, with “no binding”; and B3, with “no binding”. For the molecule B4, the binding entry is reported as “binds”. Same read-out and setting: then B5, with “binds”.

B6: the binding entry was “binds”. As for B7, the binding result is reported as “binds”. Still for that read-out and setting: then B8, with “no binding”.

Take B9: the binding entry is on record as “binds”. On the same count and under the same terms, in the case of B10 it was “no binding”; in that of B11, “no binding”; in that of B12, “binds”. Still for that read-out and setting: then B13, with “no binding”.
